The list shows a part of the results. Where only a bound is given, the exact number is not on record here.

Enrichment ratio data for 153 variants are collected here from a collection of fitness landscapes (doi:10.1126/science.1257360).

First the molecules themselves.
B1: PhoQ; a variant is named by its letters at X, in order, P23837 (parent)
chain: MKKLLRLFFPLSLRVRFLLATAAVVLVLSLAYGMVALIGYSVSFDKTTFRLLRGESNLFYTLAKWENNKLHVELPENIDKQSPTMTLIYDENGQLLWAQRDVPWLMKMIQPDWLKSNGFHEIEADVNDTSLLLSGDHSIQQQLQEVREDDDDAEMTHSVAVNVYPATSRMPKLTIVVVDTIPVELKSSYMVWSWFIYVLSANLLLVIPLLWVAAWWSLRPIEALAKEVRELEEHNRELLNPATTRELTSLVRNLNRLLKSERERYDKYRTTLTDLTHSLKTPLXXLQXXLRSLRSEKMSVSDAEPVMLEQISRISQQIGYYLHRASMRGGTLLSRELHPVAPLLDNLTSALNKVYQRKGVNISLDISPEISFVGEQNDFVEVMGNVLDNACKYCLEFVEISARQTDEHLYIVVEDDGPGIPLSKREVIFDRGQRVDTLRPGQGVGLAVAREITEQYEGKIVAGESMLGGARMEVIFGRQHSAPKDE

This assay covers variants of B1. Nature of the assay: enrichment ratio after two sorts for PhoP signalling (ratio (wild type AVST 3.29)); higher = more functional. The note with it: with PhoP (E. coli).
As for RDYN, the enrichment ratio was at most 0.25.

For the variant HAGR, the enrichment ratio was at most 0.25.

For the variant RQPK, the enrichment ratio is at most 0.25.

For YHLL, the enrichment ratio is at most 0.25.

On to YTRA, for which the enrichment ratio is at most 0.25.

In the case of LICG, the enrichment ratio was at most 0.25.

For the variant DQWL, the enrichment ratio was at most 0.25.

NNNW: the enrichment ratio was at most 0.25.

In the case of ICMG, the enrichment ratio was at most 0.25.

In the case of TIVL, the enrichment ratio is at most 0.25.

As for MMTP, the enrichment ratio is at most 0.25.

Regarding DNQC, the enrichment ratio is at most 0.25.

With VIYD, the enrichment ratio was at most 0.25.

With FLTW, the enrichment ratio is at most 0.25.

VEYC: the enrichment ratio is at most 0.25.

Consider GVWM, for which the enrichment ratio was at most 0.25.

Take AYMS: the enrichment ratio is at most 0.25.

SDCH: the enrichment ratio stood at 3.65.

As to GRNF, the enrichment ratio was at most 0.25.

As for TTVM, the enrichment ratio was determined as 3.4.

As for GVTF, the enrichment ratio came to 6.72.

Turning to PHRD, the enrichment ratio was at most 0.25.

In the case of TQSK, the enrichment ratio is at most 0.25.

As for FLKD, the enrichment ratio was at most 0.25.

As for AQQH, the enrichment ratio is at most 0.25.

With ESMP, the enrichment ratio is at most 0.25.

For the variant DWWI, the enrichment ratio is at most 0.25.

As for FSHY, the enrichment ratio is at most 0.25.

In the case of YLDL, the enrichment ratio is at most 0.25.

With WPVW, the enrichment ratio was at most 0.25.

Regarding FDNP, the enrichment ratio is at most 0.25.

Take QEDD: the enrichment ratio was at most 0.25.

On to YRSH, for which the enrichment ratio is at most 0.25.

Turning to ECRG, the enrichment ratio was at most 0.25.

For the variant PCCH, the enrichment ratio was at most 0.25.

As to WNDW, the enrichment ratio was at most 0.25.

FNSD: the enrichment ratio is at most 0.25.

In the case of YSIV, the enrichment ratio was at most 0.25.

On to GRDA, for which the enrichment ratio is at most 0.25.

Turning to VNGD, the enrichment ratio was at most 0.25.

For the variant MKKK, the enrichment ratio is at most 0.25.

For QYDV, the enrichment ratio is at most 0.25.

With SWKH, the enrichment ratio is at most 0.25.

TETK: the enrichment ratio was at most 0.25.

With DTNC, the enrichment ratio was at most 0.25.

In the case of TFQC, the enrichment ratio was at most 0.25.

On to KMCS, for which the enrichment ratio was at most 0.25.

On to FTLN, for which the enrichment ratio amounted to 4.08.

With MRTP, the enrichment ratio was at most 0.25.

Consider FHCM, for which the enrichment ratio was at most 0.25.

In the case of HCLV, the enrichment ratio was at most 0.25.

For the variant VDVD, the enrichment ratio was at most 0.25.

For the variant LWSA, the enrichment ratio is at most 0.25.

In the case of QLVS, the enrichment ratio is at most 0.25.

In the case of NQQR, the enrichment ratio was at most 0.25.

Take SQER: the enrichment ratio was at most 0.25.

Regarding GVTH, the enrichment ratio is at most 0.25.

Consider MENQ, for which the enrichment ratio is at most 0.25.

Turning to NIWQ, the enrichment ratio is at most 0.25.

In the case of AYMA, the enrichment ratio was at most 0.25.

Turning to TIEQ, the enrichment ratio is at most 0.25.

Consider DCFE, for which the enrichment ratio is at most 0.25.

PWHH: the enrichment ratio is at most 0.25.

Take QRFY: the enrichment ratio is at most 0.25.

In the case of RNVN, the enrichment ratio is at most 0.25.

Turning to KTSN, the enrichment ratio was at most 0.25.

With KQWF, the enrichment ratio was at most 0.25.

Turning to LIVA, the enrichment ratio was at most 0.25.

As for VSFF, the enrichment ratio is at most 0.25.

Consider TPCC, for which the enrichment ratio is at most 0.25.

In the case of MMEM, the enrichment ratio was at most 0.25.

In the case of KCHA, the enrichment ratio was at most 0.25.

For the variant TSLE, the enrichment ratio was determined as 7.09.

For RQKS, the enrichment ratio was at most 0.25.

Consider FRSC, for which the enrichment ratio was at most 0.25.

For SGNS, the enrichment ratio was at most 0.25.

With PIKA, the enrichment ratio was at most 0.25.

In the case of CFAI, the enrichment ratio is at most 0.25.

Turning to YYQS, the enrichment ratio was at most 0.25.

For VAHE, the enrichment ratio was at most 0.25.

As to WSIV, the enrichment ratio is 0.674.

Take TFIC: the enrichment ratio was at most 0.25.

Turning to RRRC, the enrichment ratio is at most 0.25.

Consider LSSM, for which the enrichment ratio was at most 0.25.

Regarding PMDA, the enrichment ratio was at most 0.25.

With SNDY, the enrichment ratio is at most 0.25.

Regarding ENVC, the enrichment ratio is at most 0.25.

ACFK: the enrichment ratio was at most 0.25.

As for ENDL, the enrichment ratio is at most 0.25.

On to VLHH, for which the enrichment ratio was at most 0.25.

As to IKAR, the enrichment ratio was at most 0.25.

With ETSP, the enrichment ratio is at most 0.25.

As for KLYV, the enrichment ratio is at most 0.25.

Regarding PHSS, the enrichment ratio is at most 0.25.

Consider KTLR, for which the enrichment ratio was at most 0.25.

For VMDR, the enrichment ratio was at most 0.25.

For YMRQ, the enrichment ratio is at most 0.25.

On to GEDI, for which the enrichment ratio was at most 0.25.

In the case of IHKM, the enrichment ratio was at most 0.25.

As to RDNQ, the enrichment ratio was at most 0.25.

Consider VSYM, for which the enrichment ratio was 5.7.

As to ITMA, the enrichment ratio is at most 0.25.

With TGAM, the enrichment ratio was 13.

As for IFML, the enrichment ratio was at most 0.25.

In the case of EDRP, the enrichment ratio was at most 0.25.

Consider VRYE, for which the enrichment ratio is at most 0.25.

Consider FWEH, for which the enrichment ratio was at most 0.25.

In the case of LHWK, the enrichment ratio was at most 0.25.

For the variant SYFM, the enrichment ratio was at most 0.25.

As for WMSV, the enrichment ratio is at most 0.25.

Take DLRR: the enrichment ratio is at most 0.25.

As for PLVT, the enrichment ratio was at most 0.25.

For the variant RSMT, the enrichment ratio is at most 0.25.

Take GFSK: the enrichment ratio was at most 0.25.

As for NAYY, the enrichment ratio is at most 0.25.

As to AIRH, the enrichment ratio was at most 0.25.

In the case of RALT, the enrichment ratio is at most 0.25.

As for DSER, the enrichment ratio is at most 0.25.

Consider VNRL, for which the enrichment ratio was at most 0.25.

For the variant MFYF, the enrichment ratio was at most 0.25.

Regarding AVFK, the enrichment ratio was at most 0.25.

Consider NHMQ, for which the enrichment ratio is at most 0.25.

Turning to REMQ, the enrichment ratio is at most 0.25.

Take GDSA: the enrichment ratio is at most 0.25.

Take GGMS: the enrichment ratio came to 1.56.

As to SNTS, the enrichment ratio worked out at 8.3.

Turning to PRLW, the enrichment ratio was at most 0.25.

For NFRT, the enrichment ratio was at most 0.25.

Regarding HHSF, the enrichment ratio was at most 0.25.

As to TQDY, the enrichment ratio is at most 0.25.

Turning to DFYN, the enrichment ratio was at most 0.25.

Turning to RNHC, the enrichment ratio is at most 0.25.

As for NRVV, the enrichment ratio was at most 0.25.

Turning to TLKW, the enrichment ratio was at most 0.25.

Regarding AHTM, the enrichment ratio was found to be 5.22.

Turning to GYFD, the enrichment ratio is at most 0.25.

Consider YFEE, for which the enrichment ratio is at most 0.25.

In the case of VDSR, the enrichment ratio was at most 0.25.

Consider MDFT, for which the enrichment ratio is at most 0.25.

With WYAR, the enrichment ratio is at most 0.25.

Regarding VSRV, the enrichment ratio was at most 0.25.

For the variant GVSQ, the enrichment ratio was 2.65.

For SEIE, the enrichment ratio is at most 0.25.

With SSDT, the enrichment ratio was at most 0.25.

For the variant HWDN, the enrichment ratio is at most 0.25.

Turning to NVHF, the enrichment ratio was at most 0.25.

For VWDD, the enrichment ratio is at most 0.25.

As for GMAE, the enrichment ratio was at most 0.25.

As to TNER, the enrichment ratio was at most 0.25.

Turning to HYGN, the enrichment ratio was at most 0.25.

Consider LQFM, for which the enrichment ratio was 2.67.

In the case of KIFP, the enrichment ratio was at most 0.25.

For the variant PNHW, the enrichment ratio was at most 0.25.
